The list shows a part of the results.
Key:
Test in all cases: glycan array binding signal (z-score within array); higher = stronger binding
Conditions in all cases: glycan notation: IUPAC condensed, linker removed
[1] = molecular target: Neu5Ac(a2-3)Gal(b1-3)[Fuc(a1-4)]GlcNAc
Procedure, shortened: (§1)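 Negative Z-scores can be read as non-binding. The Z-score is calculated within each array and then averaged across arrays of one protein sequence at different concentrations or buffers and across linkers. Arrays, 3228 in all, were curated from the Consortium for Functional Glycomics database and kept only where the protein sequence was available.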

[2] = molecular target: Neu5Ac(a2-3)Gal(b1-3)[Fuc(a1-4)]GlcNAc(b1-3)Gal(b1-4)[Fuc(a1-3)]GlcNAc
Procedure, shortened: as §1

[3] = molecular target: Neu5Ac(a2-3)Gal(b1-3)[Neu5Ac(a2-3)Gal(b1-4)]GlcNAc
Procedure, shortened: as §1

[4] = molecular target: Neu5Ac(a2-3)Gal(b1-3)[Neu5Ac(a2-6)]GalNAc
Procedure, shortened: as §1

Neu5Ac(a2-3)Gal(b1-4)Glc = molecular target: Neu5Ac(a2-3)Gal(b1-4)Glc
Procedure, shortened: as §1

[5] = molecular target: Neu5Ac(a2-3)Gal(b1-4)GlcNAc
Procedure, shortened: as §1

[6] = molecular target: Neu5Ac(a2-3)Gal(b1-4)GlcNAc(b1-2)Man(a1-3)[GlcNAc(b1-2)Man(b1-4)GlcNAc(b1-2)Man(a1-6)]Man(b1-4)GlcNAc(b1-4)GlcNAc
Procedure, shortened: as §1

[7] = molecular target: Neu5Ac(a2-3)Gal(b1-4)GlcNAc(b1-2)Man(a1-3)[Neu5Ac(a2-6)Gal(b1-4)GlcNAc(b1-2)Man(a1-6)]Man(b1-4)GlcNAc(b1-4)GlcNAc
Procedure, shortened: as §1

[8] = molecular target: Neu5Ac(a2-3)Gal(b1-4)GlcNAc(b1-3)Gal(b1-3)GlcNAc
Procedure, shortened: as §1

[9] = molecular target: Neu5Ac(a2-3)Gal(b1-4)GlcNAc(b1-3)Gal(b1-4)GlcNAc
Procedure, shortened: as §1

[10] = molecular target: Neu5Ac(a2-3)Gal(b1-4)GlcNAc(b1-3)Gal(b1-4)GlcNAc(b1-3)Gal(b1-4)GlcNAc
Procedure, shortened: as §1

[11] = molecular target: Neu5Ac(a2-3)Gal(b1-4)GlcNAc(b1-3)Gal(b1-4)[Fuc(a1-3)]GlcNAc
Procedure, shortened: as §1

[12] = molecular target: Neu5Ac(a2-3)Gal(b1-4)GlcNAc(b1-6)[Gal(b1-3)]GalNAc
Procedure, shortened: as §1

[13] = molecular target: Neu5Ac(a2-3)Gal(b1-4)GlcNAc(b1-6)[Neu5Ac(a2-3)Gal(b1-3)]GalNAc
Procedure, shortened: as §1

[14] = molecular target: Neu5Ac(a2-3)Gal(b1-4)GlcNAc6S
Procedure, shortened: as §1

[15] = molecular target: Neu5Ac(a2-3)Gal(b1-4)[Fuc(a1-3)]GlcNAc
Procedure, shortened: as §1

[16] = molecular target: Neu5Ac(a2-3)Gal(b1-4)[Fuc(a1-3)]GlcNAc(b1-3)Gal
Procedure, shortened: as §1

[17] = molecular target: Neu5Ac(a2-3)Gal(b1-4)[Fuc(a1-3)]GlcNAc(b1-3)Gal(b1-4)GlcNAc
Procedure, shortened: as §1

[18] = molecular target: Neu5Ac(a2-3)Gal(b1-4)[Fuc(a1-3)]GlcNAc(b1-3)Gal(b1-4)[Fuc(a1-3)]GlcNAc(b1-3)Gal(b1-4)[Fuc(a1-3)]GlcNAc
Procedure, shortened: as §1

[19] = molecular target: Neu5Ac(a2-3)Gal(b1-4)[Fuc(a1-3)]GlcNAc(b1-6)[Gal(b1-3)]GalNAc
Procedure, shortened: as §1

[20] = molecular target: Neu5Ac(a2-3)Gal(b1-4)[Fuc(a1-3)]GlcNAc6S
Procedure, shortened: as §1

[21] = molecular target: Neu5Ac(a2-3)Gal6S(b1-4)GlcNAc
Procedure, shortened: as §1

[22] = molecular target: Neu5Ac(a2-3)Gal6S(b1-4)[Fuc(a1-3)]GlcNAc
Procedure, shortened: as §1

Neu5Ac(a2-3)GalNAc = molecular target: Neu5Ac(a2-3)GalNAc
Procedure, shortened: as §1

[23] = molecular target: Neu5Ac(a2-3)GalNAc(b1-4)GlcNAc
Procedure, shortened: as §1

[24] = molecular target: Neu5Ac(a2-3)[GalNAc(b1-4)]Gal(b1-4)Glc
Procedure, shortened: as §1

[25] = molecular target: Neu5Ac(a2-3)[GalNAc(b1-4)]Gal(b1-4)GlcNAc
Procedure, shortened: as §1

[26] = molecular target: Neu5Ac(a2-3)[Neu5Ac(a2-6)]GalNAc
Procedure, shortened: as §1

Neu5Ac(a2-6)Gal = molecular target: Neu5Ac(a2-6)Gal
Procedure, shortened: as §1

Neu5Ac(a2-6)Gal(b1-4)Glc = molecular target: Neu5Ac(a2-6)Gal(b1-4)Glc
Procedure, shortened: as §1

[27] = molecular target: Neu5Ac(a2-6)Gal(b1-4)GlcNAc
Procedure, shortened: as §1

[28] = molecular target: Neu5Ac(a2-6)Gal(b1-4)GlcNAc(b1-2)Man(a1-3)[Gal(b1-4)GlcNAc(b1-2)Man(a1-6)]Man(b1-4)GlcNAc(b1-4)GlcNAc
Procedure, shortened: as §1

[29] = molecular target: Neu5Ac(a2-6)Gal(b1-4)GlcNAc(b1-2)Man(a1-3)[GlcNAc(b1-2)Man(a1-6)]Man(b1-4)GlcNAc(b1-4)GlcNAc
Procedure, shortened: as §1

[30] = molecular target: Neu5Ac(a2-6)Gal(b1-4)GlcNAc(b1-2)Man(a1-3)[GlcNAc(b1-2)Man(b1-4)GlcNAc(b1-2)Man(a1-6)]Man(b1-4)GlcNAc(b1-4)GlcNAc
Procedure, shortened: as §1

[31] = molecular target: Neu5Ac(a2-6)Gal(b1-4)GlcNAc(b1-2)Man(a1-3)[Neu5Ac(a2-6)Gal(b1-4)GlcNAc(b1-2)Man(a1-6)]Man(b1-4)GlcNAc(b1-4)GlcNAc
Procedure, shortened: as §1

[32] = molecular target: Neu5Ac(a2-6)Gal(b1-4)GlcNAc(b1-2)Man(a1-6)[Gal(b1-4)GlcNAc(b1-2)Man(a1-3)]Man(b1-4)GlcNAc(b1-4)GlcNAc
Procedure, shortened: as §1

[33] = molecular target: Neu5Ac(a2-6)Gal(b1-4)GlcNAc(b1-2)Man(a1-6)[GlcNAc(b1-2)Man(a1-3)]Man(b1-4)GlcNAc(b1-4)GlcNAc
Procedure, shortened: as §1

[34] = molecular target: Neu5Ac(a2-6)Gal(b1-4)GlcNAc(b1-3)Gal(b1-4)GlcNAc
Procedure, shortened: as §1

[35] = molecular target: Neu5Ac(a2-6)Gal(b1-4)GlcNAc(b1-3)Gal(b1-4)[Fuc(a1-3)]GlcNAc(b1-3)Gal(b1-4)[Fuc(a1-3)]GlcNAc
Procedure, shortened: as §1

[36] = molecular target: Neu5Ac(a2-6)Gal(b1-4)GlcNAc6S
Procedure, shortened: as §1

Neu5Ac(a2-6)GalNAc = molecular target: Neu5Ac(a2-6)GalNAc
Procedure, shortened: as §1

[37] = molecular target: Neu5Ac(a2-6)GalNAc(b1-4)GlcNAc
Procedure, shortened: as §1

Neu5Ac(a2-8)Neu5Ac = molecular target: Neu5Ac(a2-8)Neu5Ac
Procedure, shortened: as §1

[38] = molecular target: Neu5Ac(a2-8)Neu5Ac(a2-3)Gal(b1-4)Glc
Procedure, shortened: as §1

[39] = molecular target: Neu5Ac(a2-8)Neu5Ac(a2-3)[GalNAc(b1-4)]Gal(b1-4)Glc
Procedure, shortened: as §1

[40] = molecular target: Neu5Ac(a2-8)Neu5Ac(a2-8)Neu5Ac
Procedure, shortened: as §1

[41] = molecular target: Neu5Ac(a2-8)Neu5Ac(a2-8)Neu5Ac(a2-3)Gal(b1-4)Glc
Procedure, shortened: as §1

[42] = molecular target: Neu5Ac(a2-8)Neu5Ac(a2-8)Neu5Ac(a2-3)[GalNAc(b1-4)]Gal(b1-4)Glc
Procedure, shortened: as §1

[43] = molecular target: Neu5Ac(a2-8)Neu5Ac(a2-8)Neu5Ac(a2-8)Neu5Ac(a2-3)[GalNAc(b1-4)]Gal(b1-4)Glc
Procedure, shortened: as §1

[44] = molecular target: Neu5Ac(b2-6)Gal(b1-4)GlcNAc
Procedure, shortened: as §1

Neu5Ac(b2-6)GalNAc = molecular target: Neu5Ac(b2-6)GalNAc
Procedure, shortened: as §1

[45] = molecular target: Neu5Ac9Ac(a2-6)Gal(b1-4)GlcNAc
Procedure, shortened: as §1

[46] = molecular target: Neu5Gc(a2-3)Gal(b1-3)GlcNAc
Procedure, shortened: as §1

[47] = molecular target: Neu5Gc(a2-3)Gal(b1-3)[Fuc(a1-4)]GlcNAc
Procedure, shortened: as §1

Neu5Gc(a2-3)Gal(b1-4)Glc = molecular target: Neu5Gc(a2-3)Gal(b1-4)Glc
Procedure, shortened: as §1

[48] = molecular target: Neu5Gc(a2-3)Gal(b1-4)GlcNAc
Procedure, shortened: as §1

[49] = molecular target: Neu5Gc(a2-3)Gal(b1-4)[Fuc(a1-3)]GlcNAc
Procedure, shortened: as §1

[50] = molecular target: Neu5Gc(a2-6)Gal(b1-4)GlcNAc
Procedure, shortened: as §1

Neu5Gc(a2-6)GalNAc = molecular target: Neu5Gc(a2-6)GalNAc
Procedure, shortened: as §1

[51] = molecular target: Neu5Gc(b2-6)Gal(b1-4)GlcNAc
Procedure, shortened: as §1

B1: Angptl4 (Homo sapiens), Q9BY76 (protein)
chain: MSGAPTAGAALMLCAATAVLLSAQGGPVQSKSPRFASWDEMNVLAHGLLQLGQGLREHAERTRSQLSALERRLSACGSACQGTEGSTDLPLAPESRVDPEVLHSLQTQLKAQNSRIQQLFHKVAQQQRHLEKQHLRIQHLQSQFGLLDHKHLDHEVAKPARRKRLPEMAQPVDPAHNVSRLHRLPRDCQELFQVGERQSGLFEIQPQGSPPFLVNCKMTSDGGWTVIQRRHDGSVDFNRPWEAYKAGFGDPHGEFWLGLEKVHSITGDRNSRLAVQLRDWDGNAELLQFSVHLGGEDTAYSLQLTAPVAGQLGATTVPPSGLSVPFSTWDQDHDLRRDKNCAKSLSGGWWFGTCSHSNLNGQYFRSIPQQRQKLKKGIFWKTWRGRYYPLQATTMLIQPMAAEAAS
glycan array binding signal (z-score) [1]: -0.272 | glycan array binding signal (z-score) [2]: -0.555 | glycan array binding signal (z-score) [3]: -0.227 | glycan array binding signal (z-score) [4]: -0.122 | glycan array binding signal (z-score) (Neu5Ac(a2-3)Gal(b1-4)Glc): -0.307 | glycan array binding signal (z-score) [5]: -0.156 | glycan array binding signal (z-score) [6]: -0.621 | glycan array binding signal (z-score) [7]: -0.917 | glycan array binding signal (z-score) [8]: -0.262 | glycan array binding signal (z-score) [9]: -0.92 | glycan array binding signal (z-score) [10]: -0.603 | glycan array binding signal (z-score) [11]: -0.334 | glycan array binding signal (z-score) [12]: -0.496 | glycan array binding signal (z-score) [13]: -0.58 | glycan array binding signal (z-score) [14]: -0.609 | glycan array binding signal (z-score) [15]: -0.335 | glycan array binding signal (z-score) [16]: -0.402 | glycan array binding signal (z-score) [17]: 0.32 | glycan array binding signal (z-score) [18]: 0.762 | glycan array binding signal (z-score) [19]: -0.006 | glycan array binding signal (z-score) [20]: -0.445 | glycan array binding signal (z-score) [21]: -0.282 | glycan array binding signal (z-score) [22]: -0.53 | glycan array binding signal (z-score) (Neu5Ac(a2-3)GalNAc): -0.954 | glycan array binding signal (z-score) [23]: -0.502 | glycan array binding signal (z-score) [24]: 0.404 | glycan array binding signal (z-score) [25]: -0.209 | glycan array binding signal (z-score) [26]: -1.74 | glycan array binding signal (z-score) (Neu5Ac(a2-6)Gal): -0.048 | glycan array binding signal (z-score) (Neu5Ac(a2-6)Gal(b1-4)Glc): -0.017 | glycan array binding signal (z-score) [27]: -0.303 | glycan array binding signal (z-score) [28]: -0.209 | glycan array binding signal (z-score) [29]: -1.2 | glycan array binding signal (z-score) [30]: -0.039 | glycan array binding signal (z-score) [31]: -0.39 | glycan array binding signal (z-score) [32]: 4.1 | glycan array binding signal (z-score) [33]: -0.229 | glycan array binding signal (z-score) [34]: 0.126 | glycan array binding signal (z-score) [35]: 0.162 | glycan array binding signal (z-score) [36]: -0.37 | glycan array binding signal (z-score) (Neu5Ac(a2-6)GalNAc): -0.481 | glycan array binding signal (z-score) [37]: -0.571 | glycan array binding signal (z-score) (Neu5Ac(a2-8)Neu5Ac): -0.276 | glycan array binding signal (z-score) [38]: -0.52 | glycan array binding signal (z-score) [39]: -0.089 | glycan array binding signal (z-score) [40]: -0.016 | glycan array binding signal (z-score) [41]: -0.308 | glycan array binding signal (z-score) [42]: -0.283 | glycan array binding signal (z-score) [43]: -0.488 | glycan array binding signal (z-score) [44]: -0.639 | glycan array binding signal (z-score) (Neu5Ac(b2-6)GalNAc): -0.549 | glycan array binding signal (z-score) [45]: 0.033 | glycan array binding signal (z-score) [46]: 0.002 | glycan array binding signal (z-score) [47]: -0.279 | glycan array binding signal (z-score) (Neu5Gc(a2-3)Gal(b1-4)Glc): 0.478 | glycan array binding signal (z-score) [48]: -0.227 | glycan array binding signal (z-score) [49]: -0.161 | glycan array binding signal (z-score) [50]: -0.162 | glycan array binding signal (z-score) (Neu5Gc(a2-6)GalNAc): -0.426 | glycan array binding signal (z-score) [51]: 0.207

Source: the supplement of paper PMC8728848
